Binding data for one molecule are collected here from PMC6547688.

Results are given in words; binding and its absence hold for the method and conditions named. Binding seen in cells or lysates may run through a third protein. Some entries that bind do so weakly or less than the wild type. For some assays here: Sequences can lack the tags named with a protein.

Assay [1] deals with T1, ORC1, endogenous (human (endogenous in HeLa S3)) (UniProt Q13415).
T1 sequence: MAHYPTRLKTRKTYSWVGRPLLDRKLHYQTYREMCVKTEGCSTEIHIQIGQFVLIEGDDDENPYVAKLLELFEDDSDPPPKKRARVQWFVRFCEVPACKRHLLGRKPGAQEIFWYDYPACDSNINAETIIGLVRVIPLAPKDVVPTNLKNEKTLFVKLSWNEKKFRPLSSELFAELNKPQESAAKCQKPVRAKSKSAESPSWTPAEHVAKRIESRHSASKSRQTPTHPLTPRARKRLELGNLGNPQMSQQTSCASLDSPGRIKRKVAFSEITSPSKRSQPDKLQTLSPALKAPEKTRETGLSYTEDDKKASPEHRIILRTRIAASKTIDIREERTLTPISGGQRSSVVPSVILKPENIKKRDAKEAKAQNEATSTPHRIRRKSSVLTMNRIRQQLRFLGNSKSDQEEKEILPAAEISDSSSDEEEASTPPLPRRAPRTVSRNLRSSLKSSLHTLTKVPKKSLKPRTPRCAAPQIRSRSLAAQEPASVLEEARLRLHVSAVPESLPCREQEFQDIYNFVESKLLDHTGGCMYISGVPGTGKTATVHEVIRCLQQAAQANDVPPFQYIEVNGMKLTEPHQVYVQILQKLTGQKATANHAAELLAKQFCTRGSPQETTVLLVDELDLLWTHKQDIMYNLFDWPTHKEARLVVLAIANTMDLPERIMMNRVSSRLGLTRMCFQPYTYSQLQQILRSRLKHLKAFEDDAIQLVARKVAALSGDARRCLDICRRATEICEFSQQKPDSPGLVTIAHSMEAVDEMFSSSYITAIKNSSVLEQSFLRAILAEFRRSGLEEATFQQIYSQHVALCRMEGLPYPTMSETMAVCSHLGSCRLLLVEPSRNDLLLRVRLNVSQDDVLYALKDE
Description: co-IP; immunoprecipitation/western blotting of endogenous proteins in HeLa S3 cell Dignam extracts. A general note: Immunoblotting shows a protein as a band on a membrane.

In assay [2] the target is T2, CDC6 C-terminally tagged with Flag/HA (human) (UniProt Q99741).
T2 sequence: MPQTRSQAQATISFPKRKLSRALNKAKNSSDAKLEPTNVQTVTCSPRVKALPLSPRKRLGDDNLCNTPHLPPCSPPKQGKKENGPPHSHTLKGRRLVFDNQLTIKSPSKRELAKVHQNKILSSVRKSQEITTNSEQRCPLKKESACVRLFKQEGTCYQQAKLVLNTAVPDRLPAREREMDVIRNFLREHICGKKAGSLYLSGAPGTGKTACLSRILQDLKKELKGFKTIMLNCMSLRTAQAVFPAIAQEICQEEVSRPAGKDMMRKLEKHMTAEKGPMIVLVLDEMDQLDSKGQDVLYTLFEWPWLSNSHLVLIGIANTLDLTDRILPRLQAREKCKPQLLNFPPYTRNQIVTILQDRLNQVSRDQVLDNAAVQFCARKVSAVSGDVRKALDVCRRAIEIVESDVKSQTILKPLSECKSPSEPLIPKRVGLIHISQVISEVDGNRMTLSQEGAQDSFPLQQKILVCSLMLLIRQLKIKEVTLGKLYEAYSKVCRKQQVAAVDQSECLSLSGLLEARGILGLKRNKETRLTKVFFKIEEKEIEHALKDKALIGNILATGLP
In words: co-IP; TAP-TAG final eluates (anti-Flag then anti-HA, peptide elution) of Flag/HA-tagged baits from HeLa S3 Dignam nuclear extracts, analysed by western blotting.

Assay [3] concerns the target T3, CDT1 C-terminally tagged with Flag/HA (human) (UniProt Q9H211).
T3 sequence: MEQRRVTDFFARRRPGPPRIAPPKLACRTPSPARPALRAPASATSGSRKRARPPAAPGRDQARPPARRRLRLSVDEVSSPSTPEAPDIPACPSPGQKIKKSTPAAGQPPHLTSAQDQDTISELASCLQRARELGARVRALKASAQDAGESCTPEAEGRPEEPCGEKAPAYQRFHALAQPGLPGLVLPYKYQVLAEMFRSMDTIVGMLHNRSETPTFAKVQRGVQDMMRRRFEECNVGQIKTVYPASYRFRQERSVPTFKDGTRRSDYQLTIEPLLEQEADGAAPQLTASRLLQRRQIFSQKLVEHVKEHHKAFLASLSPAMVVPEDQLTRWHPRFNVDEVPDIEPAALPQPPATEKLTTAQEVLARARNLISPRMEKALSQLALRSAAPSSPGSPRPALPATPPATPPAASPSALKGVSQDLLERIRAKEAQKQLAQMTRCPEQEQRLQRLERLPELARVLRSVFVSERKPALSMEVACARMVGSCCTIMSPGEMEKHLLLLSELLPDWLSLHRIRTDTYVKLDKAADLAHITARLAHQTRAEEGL
The description is as above.

In assay [4] the target is T4, ORC1 C-terminally tagged with Flag/HA (human) (UniProt Q13415).
T4 sequence: T1 sequence
The description is as above.

Assay [5] addresses T5, ORCA/LRWD1 C-terminally tagged with Flag/HA (human) (UniProt Q9UFC0).
T5 sequence: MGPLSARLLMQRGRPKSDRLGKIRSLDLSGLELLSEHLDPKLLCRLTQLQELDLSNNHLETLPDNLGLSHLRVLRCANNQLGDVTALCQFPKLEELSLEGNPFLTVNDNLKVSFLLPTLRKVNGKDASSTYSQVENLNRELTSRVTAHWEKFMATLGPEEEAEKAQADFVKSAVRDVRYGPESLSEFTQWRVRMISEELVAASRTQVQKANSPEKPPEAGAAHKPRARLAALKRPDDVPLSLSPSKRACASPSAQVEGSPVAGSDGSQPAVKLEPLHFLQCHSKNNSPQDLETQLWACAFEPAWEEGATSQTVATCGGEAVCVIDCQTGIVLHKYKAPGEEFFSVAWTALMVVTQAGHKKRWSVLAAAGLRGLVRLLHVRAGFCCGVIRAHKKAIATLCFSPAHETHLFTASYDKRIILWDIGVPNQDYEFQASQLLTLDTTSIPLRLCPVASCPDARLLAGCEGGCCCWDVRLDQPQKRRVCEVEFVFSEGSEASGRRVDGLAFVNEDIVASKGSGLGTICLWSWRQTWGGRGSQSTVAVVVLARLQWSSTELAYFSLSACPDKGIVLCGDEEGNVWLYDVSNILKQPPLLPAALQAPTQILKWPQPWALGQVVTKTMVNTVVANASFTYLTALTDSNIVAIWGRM
Described as above.

B1: OBI1 (ORC-ubiquitin-ligase-1), endogenous (enzyme, UniProt Q5W0B1 1-726)
chain: MAQTVQNVTLSLTLPITCHICLGKVRQPVICINNHVFCSICIDLWLKNNSQCPACRVPITPENPCKEIIGGTSESEPMLSHTVRKHLRKTRLELLHKEYEDEIDCLQKEVEELKSKNLSLESQIKTILDPLTLVQGNQNEDKHLVTDNPSKINPETVAEWKKKLRTANEIYEKVKDDVDKLKEANKKLKLENGGLVRENLRLKAEVDNRSPQKFGRFAVAALQSKVEQYERETNRLKKALERSDKYIEELESQVAQLKNSSEEKEAMNSICQTALSADGKGSKGSEEDVVSKNQGDSARKQPGSSTSSSSHLAKPSSSRLCDTSSARQESTSKADLNCSKNKDLYQEQVEVMLDVTDTSMDTYLEREWGNKPSDCVPYKDEELYDLPAPCTPLSLSCLQLSTPENRESSVVQAGGSKKHSNHLRKLVFDDFCDSSNVSNKDSSEDDISRSENEKKSECFSSPKTGFWDCCSTSYAQNLDFESSEGNTIANSVGEISSKLSEKSGLCLSKRLNSIRSFEMNRTRTSSEASMDAAYLDKISELDSMMSESDNSKSPCNNGFKSLDLDGLSKSSQGSEFLEEPDKLEEKTELNLSKGSLTNDQLENGSEWKPTSFFLLSPSDQEMNEDFSLHSSSCPVTNEIKPPSCLFQTEFSQGILLSSSHRLFEDQRFGSSLFKMSSEMHSLHNHLQSPWSTSFVPEKRNKNVNQSTKRKIQSSLSSASPSKATKS
For B1, the binding result is given as “binds” in assay [1]; “no binding” in assay [2]; “no binding” in assay [3]; “binds” in assay [4]; “binds” in assay [5].
